Experimental data as given in the supplement of paper PMC10126150.
Sequences with one replicate were seen in a single cluster, so their values are uncertain.

These sequences were tested on ATP (assay: switch fluorescence ratio, 500 uM ATP over buffer (Cy3 cluster intensity, sum of 5 cycles each) (fold (ratio)); higher = stronger signal-on switching upon ATP binding; sequences stand for … in TCGTCGGCAGCGTCAGATGTGTATAAGAGACAGTTTTTTTTTTTTTTTTTTTTTTTTT…TC). Settings: aptamer strand: ATP DNA aptamer (quencher-CACCTGGGGGAGTATTGCGGAGGAAGG + anchor), 100 nM annealed; ATP concentration: 500 uM; one replicate.
Procedure, shortened: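 Clusters carrying Cy3-labelled switching strands on a modified Illumina MiSeq flow-cell were annealed to 100 nM quencher-labelled ATP aptamer and imaged in selection buffer. They were imaged again after 15 min with 500 uM ATP at 22 °C, over five buffer/ATP cycles with NaOH stripping and re-annealing in between. For each cluster, the fluorescence ratio is the summed Cy3 intensity of the target cycles divided by that of the buffer cycles, averaged per switch-domain sequence. Clusters outside 100-1000 RFU were left out.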
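Further: ATP exposure 15 min at 22 °C before imaging.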

Row | Sequence | switch fluorescence ratio
1 | AATTGGAG | 0.99
2 | AATTGAAAG | 1.02
3 | GAACGGTGCT | 1.02
4 | GCCTGGGAGG | 0.998
5 | TACTAGGGCG | 1.05
6 | CTTCCGGCTT | 1.12
7 | TCTTCTACAA | 1.28
8 | ATTCGCAGGG | 1.07
9 | TCGTTGTTGA | 0.983
10 | GCAACGACAC | 2.18
11 | AGTTGGAC | 1.04
12 | TGCTTGAGAC | 1.01
13 | TCGTGATGTC | 0.978
14 | CAGATAGCTG | 1.12
15 | ACGGTAAGGT | 1.1
16 | GCAGCCACTT | 1.06
17 | TAGTTTAAAG | 0.994
18 | TCTTTGGTTA | 1.06
19 | CAAAGGTAA | 1.01
20 | TCGGGGGA | 0.947
21 | ACGCTAGATC | 1.03
22 | GCGGGTTCAG | 1
23 | GATTTTAGT | 0.983
24 | CCTCGTGATG | 1.69
25 | GCTTCCTATG | 1.53
26 | ATTCCCCTTA | 1.06

Row | Sequence | switch fluorescence ratio
27 | ATCGCGTCTT | 1.02
28 | TCGTTATTAC | 1.37
29 | AGGGGATCCG | 0.977
30 | AATGAAAAAG | 1.01
31 | GTGAAGGAG | 0.991
32 | GCGCGCAGCC | 1.02
33 | CAATTCGGGA | 0.99
34 | GGTTGTGGCC | 0.979
35 | CAGCGCACCA | 1.02
36 | TGGTCGAAAC | 1.02
37 | GCCAGGTAAA | 1.03
38 | TATGACGACC | 1.16
39 | CATGCGAGA | 1.02
40 | TCATGCTCTC | 1.01
41 | CGACAATTCC | 1.57
42 | GAATTGGCGG | 1.01
43 | CGCGGACGCC | 1.02
44 | GCAATGTAGT | 1.04
45 | AAGAATTCTG | 0.973
46 | GTCTTTAGAG | 1
47 | ATGATCTGTG | 0.949
48 | GATCGAAGTA | 0.984
49 | CAAATTACGG | 1.04
50 | ATTAAAAGGG | 0.994
51 | GTGAGAGAGG | 1.01
52 | CATCCCGCCT | 1.42

Row | Sequence | switch fluorescence ratio
53 | CAAAAGTACC | 1.19
54 | ATGGGGTGA | 0.976
55 | AATCACATGG | 0.96
56 | CAAATTATTC | 0.965
57 | CCCGGCGAGG | 1.02
58 | GAAGGGTTTT | 0.998
59 | GTGCGGTCCC | 0.998
60 | GGAGGAAATA | 1.01
61 | CGCGAAGAAA | 1.04
62 | CAAACAAGGC | 1.01
63 | AGGTTATTGG | 1.02
64 | TTTTCCTTC | 1.01
65 | CGTGAGTGTA | 1
66 | ATATCAATTG | 1.02
67 | CATCCAAGG | 1.14
68 | GCCAGGATGT | 1.12
69 | TATTCGTTTG | 1.04
70 | TACAATCGGG | 0.993
71 | TATCGGTGGC | 0.978
72 | AATCCAAAGA | 0.993
73 | GATGACCTTG | 0.976
74 | GTGATTACGG | 1.02
75 | CCAATGGGCG | 1.03
76 | AGGTTTCGG | 1.04
77 | AATCATAGCC | 0.945
78 | ACAAAAAAA | 0.985

Row | Sequence | switch fluorescence ratio
79 | CTGCCGACTT | 1.01
80 | CCGGTTCATA | 1.06
81 | ATCATCGGTG | 0.985
82 | GCACATGTGC | 0.99
83 | AGTAGAAAAG | 0.999
84 | AGGGGCGCCC | 1.05
85 | ATAAAAAAAC | 1.02
86 | TAGTCTGTCT | 0.984
87 | CCATCGGGGC | 1.13
88 | ACGGACCGTA | 0.987
89 | TACTCTTTTG | 0.985
90 | TTAATCGATT | 1
91 | AACTATATA | 1.02
92 | AGAGCGTCCG | 1.01
93 | TATAAGCTCG | 0.948
94 | AGTAGTCAAG | 0.977
95 | GGGCCGGCCG | 1.01
96 | TCTAGAGCCT | 1.07
97 | TGAGAGAGA | 0.99
98 | CGCTCTATGG | 1.03
99 | ATTCGAGTAG | 0.964
100 | TAGTCTTAGT | 0.995
101 | TCGGTTTACT | 1.04
102 | CCAATGAGCG | 1.03
103 | TAGGTTGACA | 0.978
104 | GATGTAGGTC | 0.985

Row | Sequence | switch fluorescence ratio
105 | AGGAACTCTA | 1
106 | CGTTAGGCGT | 0.998
107 | TAAGAATGTG | 0.974
108 | ACGGATTTA | 1.01
109 | AACCCTGTAG | 1.03
110 | CACGACTCGA | 1.11
111 | TTACTTATAG | 0.99
112 | CGGTTTCCTT | 1.65
113 | AGGGGCACCA | 1.03
114 | AAAGCGTAC | 2.27
115 | TTTAATGCCC | 1.31
116 | GGAAGCTGC | 0.962
117 | CTTCCGTCGT | 1.45
118 | ATGTCATGTC | 0.983
119 | TTGTTACTGC | 0.993
120 | ATACGGG | 1.06
121 | CTTACGTACT | 1.63
122 | ACCCCTATAT | 1.13
123 | AGCGAAAGAT | 1.03
124 | TCACATATTT | 1.02
125 | TCTCTCATC | 1.05
126 | GTGTGGGCAC | 1.02
127 | GGGAGAGGAT | 1
128 | GAATTGTGCT | 0.952
129 | GGATAATATA | 0.945
130 | CGATTTACCG | 0.97

Row | Sequence | switch fluorescence ratio
131 | ATCGGTGTAC | 1.04
132 | ATCATCCAGA | 0.976
133 | TGGGATGTCG | 1.06
134 | GAAGGGGCTC | 0.993
135 | TCCGTGGGTT | 1.01
136 | GAGGATATTG | 1
137 | AGTAATAGTA | 1.56
138 | CATAGGTCAG | 1.03
139 | ACAGCGTTGG | 1.02
140 | GTTGATCGA | 0.998
141 | TTCAGGTAGA | 1.09
142 | TCTTCGACTT | 1.05
143 | CACCTGCGAT | 2.33
144 | GGACGGTGCT | 0.979
145 | TTGAGTGTGA | 1.04
146 | CAGGGGTAGT | 1.01
147 | CAAGGAATCT | 1.02
148 | TTTATGTCAG | 0.987
149 | TGGACGAACT | 1.34
150 | TCGGGACGGC | 1.06
151 | TCTAATAACA | 0.99
152 | AAAGGTTAGA | 1.01
153 | TGGGCAGCGA | 1.06
154 | TGTCTGGTCG | 0.991
155 | TTCAATACT | 3.27
156 | CAGACATTCT | 1.02

Row | Sequence | switch fluorescence ratio
157 | CTACGCCGTG | 0.982
158 | TTGCAGTACC | 1.86
159 | GTATTGCGAC | 0.978
160 | TTATAGAGGG | 1.05
161 | GACTTTCGGG | 1.02
162 | GGCATGAGTT | 1.03
163 | GGGATCGCCA | 1
164 | GATTTCGTAC | 1.03
165 | TCACACTTCG | 1.04
166 | TTCCGGACCT | 1.15
167 | TGGCGCTTAG | 0.968
168 | ATTAGATTCA | 1.02
169 | GAAGTAGTTG | 1
170 | CGTCGCCTTT | 1
171 | ATGAAGGGT | 1.02
172 | GGAGTAATTG | 1.15
173 | AAATGTCAGG | 1.04
174 | ATGATGTTCC | 1.04
175 | TTGCTCTTGA | 1.01
176 | CTCTGGTCAT | 1.08
177 | GACGTGGCAA | 1.86
178 | GGTAGTCTAT | 0.967
179 | GGTGTCTCGG | 0.988
180 | TGTTTCGGCC | 1.06
181 | TTGATACCTG | 1.04
182 | TCGCACTGAT | 1.07

Row | Sequence | switch fluorescence ratio
183 | CTGGGGAAAT | 1.01
184 | AAACGTCGCC | 1.09
185 | ACGCCTGAGG | 1.04
186 | CGTCTCGGAG | 0.959
187 | GCTGCACTTT | 1
188 | TTTATGCTAG | 0.99
189 | GCTAACCTCT | 1.01
190 | TGGTCGCCG | 0.985
191 | CAACCTGGAA | 1.06
192 | CACACAAGCG | 1
193 | GGTTGGTTCA | 1.04
194 | TTTTCCCCA | 1.3
195 | CGAGCTCGGG | 0.985
196 | AAACTCATGC | 1.01
197 | CATATGGAGC | 0.992
198 | CTCTATTACC | 1
199 | CTAATCTCTG | 1
200 | GTGGTTGTT | 1.01
201 | GCCGCATGCT | 1.28
